PubChem BioAssay AID995 (National Center for Advancing Translational Sciences (NCATS), 2007)
Out of some 72,000 compounds screened, about 710 (0.99%) were called active. The inconclusive results got no clear call from the source; some entries with a clear call stand among them for comparison. The call rests on the fitted dose curve; in most records, active means well fitted inhibition curve with a large enough effect; inconclusive means small, poorly fitted or top-dose-only effect; inactive means no such curve, though single readings can be large or run the other way. Potencies beside an inconclusive call are fits to weak or partial responses and may not hold up.

Test: qHTS Assay for Inhibitors of the ERK Signaling Pathway using a Homogeneous Screening Assay; further: nearly all actives have a fitted effect of over 55% in size
Settings: HEK293-V1b, vasopressin-stimulated pERK AlphaScreen; activity, negative = inhibition: at 57.5 µM (top of the series) unless noted
Summary of the method: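 Overnight-seeded V1b-HEK293 cells in 1% FBS got compound, then vasopressin (25 nM final, 5 min, 37C), then lysis buffer. AlphaScreen detection of phospho-ERK; activity normalized to basal and full-stimulation controls.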
On the % scale 0 is the no-effect control and ±100 the full control effect; potency means the concentration at half of the fitted maximal effect; tags describe the fitted curve by direction and shape.

Potency, active:
O=C(Nc1ccc2c(c1)OCCO2)c1ccc(Br)c(S(=O)(=O)N2CCOCC2)c1 7.94 µM, Cc1cccc(CNc2ncnc3ccc(-c4cccc(NS(C)(=O)=O)c4)cc23)c1 25.1 µM, c1ccc2c(c1)Cc1cc3ccccc3nc1-2 12.6 µM, Cc1ccnc(Nc2nc(-c3c(C)nc4sccn34)cs2)c1 25.1 µM

Potency, inconclusive:
CC(=O)c1cc2c(cc1NC(=O)CCCC(=O)O)OCO2 31.6 µM [inhibitor, single point], COc1ccc(-c2nnc(SCC(=O)Nc3cc(F)ccc3C)o2)cc1 39.8 µM [inhibitor, single point], CCOC(=O)c1nnn(-c2nonc2N)c1CSc1ccc(C)cc1 39.8 µM [inhibitor, single point], COc1ccc2occ(C(=O)c3coc4ccc(O)c(CN(C)C)c34)c2c1 10 µM [inhibitor, partial curve], COc1cccc(N(C(=O)c2ccco2)C(C(=O)NC2CCCC2)c2ccc(N(C)C)cc2)c1 (configuration not stated) 39.8 µM [inhibitor, single point], Cc1ccc2nc(NC(=O)C3CCCN(S(=O)(=O)c4cccnc4)C3)sc2c1 (configuration not stated) 31.6 µM [inhibitor, single point], O=C(O)COc1ccccc1C1C2C(=O)N(c3ccc(F)cc3)C(=O)C2ON1c1ccccc1 (configuration not stated) 12.6 µM [inhibitor, partial curve], C=CCOC(=O)C(C#N)c1nc2ccccc2nc1N1CCN(Cc2ccc3c(c2)OCO3)CC1 (configuration not stated) 10 µM [inhibitor, partial curve], CCOC(=O)c1cn(-c2ccccc2)nc1-c1ccncc1 0.01 µM [inhibitor, full curve, poor fit], Cc1cc(NC(=O)CSc2ccc3c(c2)OCCO3)no1 25.1 µM [inhibitor, partial curve, poor fit], O=C1c2ccccc2C(=O)c2c(Nc3cc4c5c(ccc6c7ccc8c9c(cc(Nc%10cccc%11c%10C(=O)c%10ccccc%10C%11=O)c(c3c56)c97)-c3ccccc3C8=O)C(=O)c3ccccc3-4)cccc21 3.16 µM [inhibitor, partial curve], COc1ccc(N2CCN(c3nc(NC(C)(C)C)nc(N4CCCCC4)n3)CC2)cc1 15.8 µM [inhibitor, partial curve], CCOC(=O)N1CCC(Nc2c(NCCN3CCN(c4cccc(Cl)c4)CC3)c(=O)c2=O)CC1 1.26 µM [inhibitor, full curve], COc1cccc(-c2nc(CS(=O)(=O)CC(=O)N3CCc4ccccc4C3)c(C)o2)c1 31.6 µM [inhibitor, single point], CC1(C)NC(=O)N(CCOc2cccc(Oc3ccccc3)c2)C1=O 31.6 µM [inhibitor, partial curve, poor fit], COc1ccc(Oc2nc(C)cc(C)c2C#N)cc1 25.1 µM [inhibitor, single point], Cc1cc(OCC(=O)Nc2ccc3c(c2)OCCO3)ccc1Cl 39.8 µM [inhibitor, single point], Cc1c(OCc2ccc(C(=O)O)o2)ccc2c3c(c(=O)oc12)CCC3 39.8 µM [inhibitor, single point], C/C=C1/C(=O)C[C@H]2[C@@H]3CCC4=CC(=O)CC[C@]4(C)[C@H]3CC[C@]12C 31.6 µM [inhibitor, partial curve], Cc1ccc2nsnc2c1N(S(C)(=O)=O)S(C)(=O)=O 31.6 µM [inhibitor, single point], N#Cc1cccc(-c2nc(NCc3cccs3)c3ccccc3n2)c1 7.94 µM [inhibitor, partial curve], CN1CCN(c2ccccc2NC(=O)c2ccc(OCc3ccccc3)cc2)CC1 10 µM [inhibitor, partial curve], COc1ccc(N2CCN(C(=O)COc3ccccc3)CC2)cc1 2 µM [inhibitor, partial curve], Cc1ccc(-n2c(=O)[nH]c3c(C(N)=O)nc(CC(C)C)nc32)cc1 3.98 µM [inhibitor, full curve, poor fit], O=C(CSc1nnc(-c2ccc(Br)o2)n1Cc1ccccc1)c1ccccc1F 0.398 µM [inhibitor, partial curve, poor fit], O=C(CCN1C(=O)c2ccccc2C1=O)N1CCN(Cc2ccc(Cl)cc2Cl)CC1 39.8 µM [inhibitor, single point], CCc1nc(N[C@@H](Cc2c[nH]c3ccccc23)C(=O)O)c2oc3ccccc3c2n1 31.6 µM [inhibitor, single point], CCN(CC)c1ccc2c(c1)oc(=O)c1c(Cl)cc(=O)oc12 15.8 µM [inhibitor, partial curve], Cc1ccc(-c2cc(-c3nnc(SCC(=O)N(C)CCC#N)n3N)c3ccccc3n2)cc1 25.1 µM [inhibitor, single point], O=C(O)CCC(=O)C(=O)O 3.98 µM [inhibitor, single point], Cc1ccc(-c2nnn(CC(=O)N(CC(=O)NCC3CCCO3)c3ccccc3)n2)o1 (configuration not stated) 3.98 µM [inhibitor, partial curve, poor fit], COc1ccc(/C=C/C(=O)c2cc(O)ccc2O)cc1 31.6 µM [inhibitor, single point], COC(=O)c1ccccc1NC(=O)c1sc(N)nc1C 39.8 µM [inhibitor, single point], Clc1ccccc1-c1ccc2ncnc(NCCN3CCOCC3)c2c1 2.51 µM [inhibitor, full curve], CC1=C(C#N)c2nc(N)c(C#N)c(C)c2/C1=C\c1ccccc1 3.98 µM [inhibitor, full curve], COc1cccc(N2CCN(Cc3nc(N)nc(N4CCCc5ccccc54)n3)CC2)c1 6.31 µM [inhibitor, partial curve], CCOC(=O)c1c(C)[nH]c(C(=O)Cn2nnc(-c3ccccc3Cl)n2)c1C 7.94 µM [inhibitor, partial curve]

Potency, inactive:
C=CC1=C(C)C2=NC1=CC1=NC(=CC3=NC(=CC4=NC(=C2)C(C)=C4CCC(=O)O)C(CCC(=O)O)=C3C)C(C=C)=C1C.[Zn], COc1ccc2c(c1)CCC1[C@@H]2CCC2(C)[C@@H](NCCCCCCN3C(=O)C=CC3=O)CC[C@@H]12 (some centres not stated), Cn1c(SCC(=O)NCc2ccco2)nc2ccccc2c1=O, O=C(Nc1cc(NC(=O)c2ccccc2)c(C(=O)O)cc1C(=O)O)c1ccccc1, c1csc(-c2csc3nc(CN4CCOCC4)nc(NCc4ccc5c(c4)OCO5)c23)c1, CCC1=C2CC[C@H]3C(=O)N(c4ccccc4)C(=O)[C@H]3[C@H]2[C@@]2(Cc3ccccc3)C(=NCC3CC3)OC(=O)N2C1=O, CCOC(=O)C1(O)Oc2cc(OC)cc(OC)c2C(=O)C1c1ccccc1 (configuration not stated), O=C(NC1CCCCCCC1)C1CCN(S(=O)(=O)N2CCC3(CC2)OCCO3)CC1, Cc1cccc(C2Nc3ccccc3C(=O)N2CCc2ccccc2)n1 (configuration not stated), CCc1ccccc1O, COc1cc(=O)n(C)c2c(OC[C@@H](O)C(C)(C)O)cccc12, CCC(=O)Nc1ccc(NC(=O)c2cc3ccccc3o2)cc1, Cc1nc(N2CCOCC2)c2nc(-c3ccccc3)n(CCN3CCOCC3)c2n1, Cc1ccc2c(c1)c1c3n2CCN(C(=O)Cn2c(-c4ccccc4)noc2=O)C3CCC1 (configuration not stated), CC(C)c1nc2oc3c(N4CCNCC4)ncnc3c2c2c1CCC2, Cc1ccccc1Cn1c(=N)n(CC(O)c2ccco2)c2ccccc21 (configuration not stated), O=C(NCCCc1ccccc1)c1ccccc1O, CCN(CCCNC(=O)C1CCN(S(=O)(=O)c2cccc3nonc23)CC1)Cc1ccccc1, O=C(O)C1CCCCC1C(=O)OCCCCOC(=O)C1CCCCC1C(=O)O (configuration not stated), Cc1ccc(C(CC(=O)c2ccco2)SCCO)cc1 (configuration not stated), CN(CCOc1ccc(C[C@H](Nc2ccccc2C(=O)c2ccccc2)C(=O)O)cc1)c1ccccn1, COc1ccccc1NC(=O)Cn1nnc(C(=O)Nc2ccccc2)c1N, OC1CCC2Cc3ccccc3N=C12 (configuration not stated), C=CCSCC=C, Cc1cccc(Nc2ccccc2C(=O)O)c1C, Cc1ccsc1C1C(C(=O)O)c2ccccc2C(=O)N1C (configuration not stated), CC(=O)C1C(=O)CC(C)(O)C(C(C)=O)C1c1ccc(N(C)C)cc1 (configuration not stated)

activity, negative = inhibition, inactive:
NCCc1nc(-c2nc(C(=O)O)cs2)cs1 -20% [at 11.5 µM], O=CN[C@@H](Cc1cnc[nH]1)C(=O)O -7.51% [at 11.5 µM], COc1ccc(-c2nc3c(c4c2CC(C)OC4)CN(CCC(C)C)CC3)cc1 (configuration not stated) 30.8% [at 11.5 µM], O=C1c2cccc(O)c2C(=O)c2c(O[C@@H]3O[C@H](CO)[C@@H](O)[C@H](O)[C@@H]3O)cccc21 3.23% [at 11.5 µM]
